# The other results are listed elsewhere or left out.
# Columns and labels:
# Experiment in all cases: glycan array binding signal (z-score within array); higher = stronger binding
# Details in all cases: glycan notation: IUPAC condensed, linker removed
# [1] = biological target: Fuc(a1-2)Gal(b1-4)GlcNAc(b1-3)Gal(b1-4)GlcNAc(b1-3)Gal(b1-4)GlcNAc
# In short: (§1)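 Columns mapping to the same glycan were averaged after glycan names were converted to IUPAC-condensed notation. The data come from 3228 arrays in the Consortium for Functional Glycomics database, limited to those with an available protein sequence. Binding is reported as a within-array Z-score averaged across arrays of one protein sequence and across linkers.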
# [2] = biological target: Fuc(a1-2)Gal(b1-4)GlcNAc(b1-3)GalNAc
# In short: as §1
# [3] = biological target: Fuc(a1-2)Gal(b1-4)GlcNAc(b1-3)[Fuc(a1-2)Gal(b1-4)GlcNAc(b1-6)]GalNAc
# In short: as §1
# [4] = biological target: Fuc(a1-2)Gal(b1-4)GlcNAc(b1-3)[Fuc(a1-3)[Gal(b1-4)]GlcNAc(b1-6)]Gal(b1-4)Glc
# In short: as §1
# [5] = biological target: Fuc(a1-2)Gal(b1-4)GlcNAc(b1-6)GalNAc
# In short: as §1
# [6] = biological target: Fuc(a1-2)Gal(b1-4)GlcNAc6S
# In short: as §1
# [7] = biological target: Fuc(a1-2)Gal(b1-4)[Fuc(a1-3)]GlcNAc
# In short: as §1
# [8] = biological target: Fuc(a1-2)Gal(b1-4)[Fuc(a1-3)]GlcNAc(b1-2)Man(a1-3)[Fuc(a1-2)Gal(b1-4)[Fuc(a1-3)]GlcNAc(b1-2)Man(a1-6)]Man(b1-4)GlcNAc(b1-4)[Fuc(a1-6)]GlcNAc
# In short: as §1
# [9] = biological target: Fuc(a1-2)Gal(b1-4)[Fuc(a1-3)]GlcNAc(b1-2)[Fuc(a1-2)Gal(b1-4)[Fuc(a1-3)]GlcNAc(b1-4)]Man(a1-3)[Fuc(a1-2)Gal(b1-4)[Fuc(a1-3)]GlcNAc(b1-2)Man(a1-6)]Man(b1-4)GlcNAc(b1-4)GlcNAc
# In short: as §1
# [10] = biological target: Fuc(a1-2)Gal(b1-4)[Fuc(a1-3)]GlcNAc(b1-3)Gal(b1-4)[Fuc(a1-3)]GlcNAc
# In short: as §1
# [11] = biological target: Fuc(a1-2)Gal(b1-4)[Fuc(a1-3)]GlcNAc(b1-3)Gal(b1-4)[Fuc(a1-3)]GlcNAc(b1-3)Gal(b1-4)[Fuc(a1-3)]GlcNAc
# In short: as §1
# [12] = biological target: Fuc(a1-2)Gal(b1-4)[Fuc(a1-3)]GlcNAc(b1-3)GalNAc
# In short: as §1
# [13] = biological target: Fuc(a1-2)Gal(b1-4)[Fuc(a1-3)]GlcNAc(b1-3)[Neu5Ac(a2-6)Gal(b1-4)GlcNAc(b1-6)]Gal(b1-4)Glc
# In short: as §1
# [14] = biological target: Fuc(a1-2)Gal3S(b1-4)GlcNAc
# In short: as §1
# [15] = biological target: Fuc(a1-2)Gal6S(b1-3)GlcNAc
# In short: as §1
# [16] = biological target: Fuc(a1-2)Gal6S(b1-3)GlcNAc6S
# In short: as §1
# Fuc(a1-2)Gal6S(b1-4)Glc = biological target: Fuc(a1-2)Gal6S(b1-4)Glc
# In short: as §1
# [17] = biological target: Fuc(a1-2)Gal6S(b1-4)Glc6S
# In short: as §1
# Fuc(a1-2)[Gal(a1-3)]Gal = biological target: Fuc(a1-2)[Gal(a1-3)]Gal
# In short: as §1
# [18] = biological target: Fuc(a1-2)[Gal(a1-3)]Gal(b1-3)GalNAc
# In short: as §1
# [19] = biological target: Fuc(a1-2)[Gal(a1-3)]Gal(b1-3)GalNAc(b1-3)Gal(a1-4)Gal(b1-4)Glc
# In short: as §1
# [20] = biological target: Fuc(a1-2)[Gal(a1-3)]Gal(b1-3)GlcNAc
# In short: as §1
# [21] = biological target: Fuc(a1-2)[Gal(a1-3)]Gal(b1-3)GlcNAc(b1-2)Man(a1-3)[Fuc(a1-2)[Gal(a1-3)]Gal(b1-3)GlcNAc(b1-2)Man(a1-6)]Man(b1-4)GlcNAc(b1-4)GlcNAc
# In short: as §1
# [22] = biological target: Fuc(a1-2)[Gal(a1-3)]Gal(b1-3)GlcNAc(b1-2)Man(a1-3)[Fuc(a1-2)[Gal(a1-3)]Gal(b1-3)GlcNAc(b1-2)Man(a1-6)]Man(b1-4)GlcNAc(b1-4)[Fuc(a1-6)]GlcNAc
# In short: as §1
# [23] = biological target: Fuc(a1-2)[Gal(a1-3)]Gal(b1-3)GlcNAc(b1-3)GalNAc
# In short: as §1
# [24] = biological target: Fuc(a1-2)[Gal(a1-3)]Gal(b1-3)GlcNAc(b1-6)GalNAc
# In short: as §1
# [25] = biological target: Fuc(a1-2)[Gal(a1-3)]Gal(b1-4)Glc
# In short: as §1
# [26] = biological target: Fuc(a1-2)[Gal(a1-3)]Gal(b1-4)GlcNAc
# In short: as §1
# [27] = biological target: Fuc(a1-2)[Gal(a1-3)]Gal(b1-4)GlcNAc(b1-2)Man
# In short: as §1
# [28] = biological target: Fuc(a1-2)[Gal(a1-3)]Gal(b1-4)GlcNAc(b1-2)Man(a1-3)[Fuc(a1-2)[Gal(a1-3)]Gal(b1-4)GlcNAc(b1-2)Man(a1-6)]Man(b1-4)GlcNAc(b1-4)GlcNAc
# In short: as §1
binder,measurement,setting,value
CBM40 CPF071 (Clostridium perfringens) (protein) MAHHHHHHVGTGSNDDDDKSPDPMLSSLGEYKDINLESSNASNITYDLEKYKNLDEGTIVVRFNSKDSKIQSLLGISNSKTKNGYFNFYVTNSRVGFELRNQKNEGNTQNGTENLVHMYKDVALNDGDNTVALKIEKNKGYKLFLNGKMIKEVKDTNTKFLNNIENLDSAFIGKTNRYGQSNEYNFKGNIGFMNIYNEPLGDDYLLSKTGETK,glycan array binding signal (z-score),[1],0.09
same,glycan array binding signal (z-score),[2],-0.614
same,glycan array binding signal (z-score),[3],-0.395
same,glycan array binding signal (z-score),[4],2.74
same,glycan array binding signal (z-score),[5],-0.375
same,glycan array binding signal (z-score),[6],-0.165
same,glycan array binding signal (z-score),[7],0.074
same,glycan array binding signal (z-score),[8],-0.075
same,glycan array binding signal (z-score),[9],-0.159
same,glycan array binding signal (z-score),[10],-0.457
same,glycan array binding signal (z-score),[11],0.635
same,glycan array binding signal (z-score),[12],-0.448
same,glycan array binding signal (z-score),[13],-0.343
same,glycan array binding signal (z-score),[14],-0.643
same,glycan array binding signal (z-score),[15],-0.078
same,glycan array binding signal (z-score),[16],0.289
same,glycan array binding signal (z-score),Fuc(a1-2)Gal6S(b1-4)Glc,-0.398
same,glycan array binding signal (z-score),[17],0.672
same,glycan array binding signal (z-score),Fuc(a1-2)[Gal(a1-3)]Gal,-0.162
same,glycan array binding signal (z-score),[18],-0.316
same,glycan array binding signal (z-score),[19],0.551
same,glycan array binding signal (z-score),[20],-0.142
same,glycan array binding signal (z-score),[21],-0.315
same,glycan array binding signal (z-score),[22],0.077
same,glycan array binding signal (z-score),[23],-0.605
same,glycan array binding signal (z-score),[24],-0.443
same,glycan array binding signal (z-score),[25],0.117
same,glycan array binding signal (z-score),[26],-0.217
same,glycan array binding signal (z-score),[27],-0.058
same,glycan array binding signal (z-score),[28],-0.308
